According to PubChem BioAssay AID256 (DTP/NCI, 2004):
Further values from the same series stand in other lists. Inconclusive results and toxic doses are left out. The calls were made as follows: active = survival T/C of 150% or more; inactive = T/C below 125% in these data.

Tested on: CD2F1 mice, L1210 leukemia ip, survival T/C
Experiment: NCI In Vivo Anticancer Drug Screen. Data for tumor model L1210 Leukemia (intraperitoneal) in CD2F1 (CDF1) mice
Details: higher = longer survival
Outline: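 Mice carrying a transplanted tumor received test compound or vehicle alone. The value is the measurement in the treated group divided by that in the vehicle-treated control group.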

Measured: T/C

NC(C/[N+]([O-])=N/O)C(=O)O (stereo not given)
inactive: endpoint: mean survival time, dose: 9.38 mg/kg/injection, schedule: Q01DX009 (ip), vehicle: alkali diluted with saline 111 % of control | endpoint: mean survival time, dose: 9.4 mg/kg/injection, schedule: Q01DX009 (ip), vehicle: alkali diluted with saline 106 % of control | endpoint: mean survival time, dose: 28.13 mg/kg/injection, schedule: Q04DX003 (ip), vehicle: alkali diluted with saline 106 % of control | endpoint: mean survival time, dose: 112.5 mg/kg/injection, schedule: Q04DX003 (ip), vehicle: alkali diluted with saline 105 % of control | endpoint: mean survival time, dose: 225.0 mg/kg/injection, schedule: Q04DX003 (ip), vehicle: alkali diluted with saline 107 % of control | endpoint: median survival time, dose: 3.13 mg/kg/injection, schedule: Q01DX009 (ip), vehicle: water 105 % of control | endpoint: median survival time, dose: 6.25 mg/kg/injection, schedule: Q01DX009 (ip), vehicle: water 105 % of control | endpoint: median survival time, dose: 12.5 mg/kg/injection, schedule: Q01DX009 (ip), vehicle: water 110 % of control | endpoint: median survival time, dose: 25.0 mg/kg/injection, schedule: Q01DX009 (ip), vehicle: water 110 % of control | endpoint: median survival time, dose: 31.3 mg/kg/injection, schedule: Q04DX003 (ip), vehicle: water 111 % of control
